{"source": "the supplement of paper PMC8728848", "test_in_all_cases": "glycan array binding signal (z-score within array); higher = stronger binding", "conditions_in_all_cases": "glycan notation: IUPAC condensed, linker removed", "key": {"Fuc(a1-2)Gal": {"biological_target": "Fuc(a1-2)Gal", "in_short": "(§1)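 Arrays were curated from the Consortium for Functional Glycomics database, 3228 in total, and kept only where the protein sequence was available. Binding is expressed as a within-array Z-score. This score was averaged across arrays of the same protein sequence at different concentrations or buffers and across linkers, and negative values can be read as non-binding.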"}, "Fuc(a1-2)Gal(b1-3)GalNAc": {"biological_target": "Fuc(a1-2)Gal(b1-3)GalNAc", "in_short": "as §1"}, "[1]": {"biological_target": "Fuc(a1-2)Gal(b1-3)GalNAc(b1-3)Gal", "in_short": "as §1"}, "[2]": {"biological_target": "Fuc(a1-2)Gal(b1-3)GalNAc(b1-3)Gal(a1-4)Gal(b1-4)Glc", "in_short": "as §1"}, "[3]": {"biological_target": "Fuc(a1-2)Gal(b1-3)GalNAc(b1-3)Gal(b1-4)Glc", "in_short": "as §1"}, "[4]": {"biological_target": "Fuc(a1-2)Gal(b1-3)GalNAc(b1-4)[Neu5Ac(a2-3)]Gal(b1-4)Glc", "in_short": "as §1"}, "[5]": {"biological_target": "Fuc(a1-2)Gal(b1-3)[Fuc(a1-4)]GlcNAc", "in_short": "as §1"}, "Fuc(a1-2)Gal(b1-4)Glc": {"biological_target": "Fuc(a1-2)Gal(b1-4)Glc", "in_short": "as §1"}, "Fuc(a1-2)Gal(b1-4)GlcNAc": {"biological_target": "Fuc(a1-2)Gal(b1-4)GlcNAc", "in_short": "as §1"}, "[6]": {"biological_target": "Fuc(a1-2)Gal(b1-4)GlcNAc(b1-3)Gal(b1-4)GlcNAc", "in_short": "as §1"}, "[7]": {"biological_target": "Fuc(a1-2)Gal(b1-4)GlcNAc(b1-3)Gal(b1-4)GlcNAc(b1-3)Gal(b1-4)GlcNAc", "in_short": "as §1"}, "[8]": {"biological_target": "Fuc(a1-2)Gal(b1-4)[Fuc(a1-3)]GalNAc(b1-3)Gal(b1-4)[Fuc(a1-3)]GlcNAc", "in_short": "as §1"}, "[9]": {"biological_target": "Fuc(a1-2)Gal(b1-4)[Fuc(a1-3)]GalNAc(b1-3)Gal(b1-4)[Fuc(a1-3)]GlcNAc(b1-3)Gal(b1-4)[Fuc(a1-3)]GalNAc", "in_short": "as §1"}, "[10]": {"biological_target": "Fuc(a1-2)Gal(b1-4)[Fuc(a1-3)]GlcNAc", "in_short": "as §1"}, "Fuc(a1-2)GlcNAc": {"biological_target": "Fuc(a1-2)GlcNAc", "in_short": "as §1"}, "Fuc(a1-2)[Gal(a1-3)]Gal": {"biological_target": "Fuc(a1-2)[Gal(a1-3)]Gal", "in_short": "as §1"}, "[11]": {"biological_target": "Fuc(a1-2)[Gal(a1-3)]Gal(b1-3)GlcNAc", "in_short": "as §1"}, "[12]": {"biological_target": "Fuc(a1-2)[Gal(a1-3)]Gal(b1-4)Glc", "in_short": "as §1"}, "[13]": {"biological_target": "Fuc(a1-2)[Gal(a1-3)]Gal(b1-4)GlcNAc", "in_short": "as §1"}, "[14]": {"biological_target": "Fuc(a1-2)[Gal(a1-3)]Gal(b1-4)[Fuc(a1-3)]GlcNAc", "in_short": "as §1"}, "[15]": {"biological_target": "Fuc(a1-2)[Gal(a1-4)]Gal(b1-4)GalNAc", "in_short": "as §1"}, "[16]": {"biological_target": "Fuc(a1-2)[GalNAc(a1-3)]Gal", "in_short": "as §1"}, "[17]": {"biological_target": "Fuc(a1-2)[GalNAc(a1-3)]Gal(b1-3)GlcNAc", "in_short": "as §1"}, "[18]": {"biological_target": "Fuc(a1-2)[GalNAc(a1-3)]Gal(b1-4)Glc", "in_short": "as §1"}, "[19]": {"biological_target": "Fuc(a1-2)[GalNAc(a1-3)]Gal(b1-4)GlcNAc", "in_short": "as §1"}, "[20]": {"biological_target": "Fuc(a1-2)[GalNAc(a1-3)]Gal(b1-4)[Fuc(a1-3)]GlcNAc", "in_short": "as §1"}, "[21]": {"biological_target": "Fuc(a1-2)[GalNAc(a1-4)]Gal(b1-4)GlcNAc", "in_short": "as §1"}, "Fuc(a1-3)GlcNAc": {"biological_target": "Fuc(a1-3)GlcNAc", "in_short": "as §1"}, "[22]": {"biological_target": "Fuc(a1-3)[Gal(b1-4)]GlcNAc", "in_short": "as §1"}, "[23]": {"biological_target": "Fuc(a1-3)[Gal(b1-4)]GlcNAc(b1-4)Gal(b1-4)[Fuc(a1-3)]GlcNAc", "in_short": "as §1"}, "[24]": {"biological_target": "Fuc(a1-3)[Gal(b1-4)]GlcNAc(b1-4)Gal(b1-4)[Fuc(a1-3)]GlcNAc(b1-4)Gal(b1-4)[Fuc(a1-3)]GlcNAc", "in_short": "as §1"}, "[25]": {"biological_target": "Fuc(a1-3)[Gal3S(b1-4)]GlcNAc", "in_short": "as §1"}, "[26]": {"biological_target": "Fuc(a1-3)[GalNAc(b1-4)]Gal(b1-4)GlcNAc", "in_short": "as §1"}, "Fuc(a1-4)GlcNAc": {"biological_target": "Fuc(a1-4)GlcNAc", "in_short": "as §1"}, "Fuc(b1-3)GlcNAc": {"biological_target": "Fuc(b1-3)GlcNAc", "in_short": "as §1"}, "Gal(a1-2)Gal": {"biological_target": "Gal(a1-2)Gal", "in_short": "as §1"}, "Gal(a1-3)Gal": {"biological_target": "Gal(a1-3)Gal", "in_short": "as §1"}, "Gal(a1-3)Gal(b1-3)Glc": {"biological_target": "Gal(a1-3)Gal(b1-3)Glc", "in_short": "as §1"}, "Gal(a1-3)Gal(b1-3)GlcNAc": {"biological_target": "Gal(a1-3)Gal(b1-3)GlcNAc", "in_short": "as §1"}, "Gal(a1-3)Gal(b1-4)GlcNAc": {"biological_target": "Gal(a1-3)Gal(b1-4)GlcNAc", "in_short": "as §1"}, "[27]": {"biological_target": "Gal(a1-3)Gal(b1-4)[Fuc(a1-3)]GalNAc", "in_short": "as §1"}, "Gal(a1-3)GlcNAc": {"biological_target": "Gal(a1-3)GlcNAc", "in_short": "as §1"}, "[28]": {"biological_target": "Gal(a1-3)[Gal(a1-4)]Gal(b1-4)GlcNAc", "in_short": "as §1"}, "Gal(a1-4)Gal(b1-4)Gal": {"biological_target": "Gal(a1-4)Gal(b1-4)Gal", "in_short": "as §1"}, "Gal(a1-4)Gal(b1-4)GalNAc": {"biological_target": "Gal(a1-4)Gal(b1-4)GalNAc", "in_short": "as §1"}}, "note": "This is one part of the list."}
{"binder": "RNase 1 (Bos taurus), P61823 (protein) MALKSLVLLSLLVLVLLLVRVQPSLGKETAAAKFERQHMDSSTSAASSSNYCNQMMKSRNLTKDRCKPVNTFVHESLADVQAVCSQKNVACKNGQTNCYQSYSTMSITDCRETGSSKYPNCAYKTTQANKHIIVACEGNPYVPVHFDASV", "values": [{"measurement": "glycan array binding signal (z-score)", "setting": "Fuc(a1-2)Gal", "value": -0.156}, {"measurement": "glycan array binding signal (z-score)", "setting": "Fuc(a1-2)Gal(b1-3)GalNAc", "value": -0.157}, {"measurement": "glycan array binding signal (z-score)", "setting": "[1]", "value": -0.195}, {"measurement": "glycan array binding signal (z-score)", "setting": "[2]", "value": 1.93}, {"measurement": "glycan array binding signal (z-score)", "setting": "[3]", "value": -0.138}, {"measurement": "glycan array binding signal (z-score)", "setting": "[4]", "value": -0.19}, {"measurement": "glycan array binding signal (z-score)", "setting": "[5]", "value": -0.174}, {"measurement": "glycan array binding signal (z-score)", "setting": "Fuc(a1-2)Gal(b1-4)Glc", "value": -0.104}, {"measurement": "glycan array binding signal (z-score)", "setting": "Fuc(a1-2)Gal(b1-4)GlcNAc", "value": -0.178}, {"measurement": "glycan array binding signal (z-score)", "setting": "[6]", "value": -0.225}, {"measurement": "glycan array binding signal (z-score)", "setting": "[7]", "value": -0.177}, {"measurement": "glycan array binding signal (z-score)", "setting": "[8]", "value": -0.193}, {"measurement": "glycan array binding signal (z-score)", "setting": "[9]", "value": -0.138}, {"measurement": "glycan array binding signal (z-score)", "setting": "[10]", "value": -0.212}, {"measurement": "glycan array binding signal (z-score)", "setting": "Fuc(a1-2)GlcNAc", "value": -0.17}, {"measurement": "glycan array binding signal (z-score)", "setting": "Fuc(a1-2)[Gal(a1-3)]Gal", "value": -0.14}, {"measurement": "glycan array binding signal (z-score)", "setting": "[11]", "value": -0.126}, {"measurement": "glycan array binding signal (z-score)", "setting": "[12]", "value": -0.211}, {"measurement": "glycan array binding signal (z-score)", "setting": "[13]", "value": -0.134}, {"measurement": "glycan array binding signal (z-score)", "setting": "[14]", "value": -0.168}, {"measurement": "glycan array binding signal (z-score)", "setting": "[15]", "value": 0.238}, {"measurement": "glycan array binding signal (z-score)", "setting": "[16]", "value": -0.151}, {"measurement": "glycan array binding signal (z-score)", "setting": "[17]", "value": -0.241}, {"measurement": "glycan array binding signal (z-score)", "setting": "[18]", "value": -0.171}, {"measurement": "glycan array binding signal (z-score)", "setting": "[19]", "value": -0.167}, {"measurement": "glycan array binding signal (z-score)", "setting": "[20]", "value": -0.057}, {"measurement": "glycan array binding signal (z-score)", "setting": "[21]", "value": -0.213}, {"measurement": "glycan array binding signal (z-score)", "setting": "Fuc(a1-3)GlcNAc", "value": -0.013}, {"measurement": "glycan array binding signal (z-score)", "setting": "[22]", "value": -0.227}, {"measurement": "glycan array binding signal (z-score)", "setting": "[23]", "value": -0.08}, {"measurement": "glycan array binding signal (z-score)", "setting": "[24]", "value": -0.074}, {"measurement": "glycan array binding signal (z-score)", "setting": "[25]", "value": -0.168}, {"measurement": "glycan array binding signal (z-score)", "setting": "[26]", "value": -0.22}, {"measurement": "glycan array binding signal (z-score)", "setting": "Fuc(a1-4)GlcNAc", "value": -0.217}, {"measurement": "glycan array binding signal (z-score)", "setting": "Fuc(b1-3)GlcNAc", "value": -0.234}, {"measurement": "glycan array binding signal (z-score)", "setting": "Gal(a1-2)Gal", "value": -0.153}, {"measurement": "glycan array binding signal (z-score)", "setting": "Gal(a1-3)Gal", "value": -0.208}, {"measurement": "glycan array binding signal (z-score)", "setting": "Gal(a1-3)Gal(b1-3)Glc", "value": -0.212}, {"measurement": "glycan array binding signal (z-score)", "setting": "Gal(a1-3)Gal(b1-3)GlcNAc", "value": -0.213}, {"measurement": "glycan array binding signal (z-score)", "setting": "Gal(a1-3)Gal(b1-4)GlcNAc", "value": -0.254}, {"measurement": "glycan array binding signal (z-score)", "setting": "[27]", "value": -0.199}, {"measurement": "glycan array binding signal (z-score)", "setting": "Gal(a1-3)GlcNAc", "value": -0.175}, {"measurement": "glycan array binding signal (z-score)", "setting": "[28]", "value": -0.158}, {"measurement": "glycan array binding signal (z-score)", "setting": "Gal(a1-4)Gal(b1-4)Gal", "value": 7.93}, {"measurement": "glycan array binding signal (z-score)", "setting": "Gal(a1-4)Gal(b1-4)GalNAc", "value": 8.87}]}
